Measurements published in PubChem BioAssay AID588855 (National Center for Advancing Translational Sciences (NCATS), 2011).
The campaign covered roughly 410,000 compounds. About 5,000 (1.2%) were called active. The inconclusive results got no clear call from the source; some entries with a clear call stand among them for comparison. Calls come from the whole dose curve; as a rule, active = well fitted inhibition curve with a large enough effect; inconclusive = small, poorly fitted or top-dose-only effect; inactive = no such curve, though single readings can be large or run the other way. Potencies beside an inconclusive call are fits to weak or partial responses and may not hold up.

Experiment: qHTS for Inhibitors of TGF-b; note: nearly all actives have a fitted effect of over 65% in size
Conditions: HepG2 CAGA-GFP TGF-b/SMAD3 reporter, GFP fluorescence, 18 h, TGF-beta stimulated, 500 pg/mL final; series mostly up to 46.1 µM
Outline: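 TGF-beta reporter screen: HEPG2 CAGA-GFP, 1% FBS, 500 pg/mL TGF-beta final, 18 h; per-cell GFP summed per well; curves fitted and categorized by class.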
Potency is the fitted concentration of half-maximal effect; tags give direction and shape of the fitted curve.

Q: With CC(OC(=O)c1cc(=O)[nH]c2ccccc12)C(=O)NC1CCCCC1C (stereo unspecified) as the molecule, how does the Potency read?
A: inconclusive: 3.16 µM [inhibitor, single point]

Q: For c1ccc(-c2ncc(CN3CCN(c4ccccn4)CC3)[nH]2)cc1, which Potency is on record?
A: inactive

Q: For O=C(CN1CCC(n2nnc3cc(F)ccc32)CC1)NCc1ccco1, which Potency is on record?
A: inactive

Q: For COCC1CCN(C(=O)c2cc(COc3ccc(C)c(C)c3)on2)C1 (stereo unspecified), which Potency is on record?
A: inactive

Q: Which Potency does the source give for Clc1ccccc1C1=Nn2c(nnc2-c2ccncc2)SC1 here?
A: inconclusive: 11.2 µM [inhibitor, partial curve]

Q: With COc1ccc(/C=N/NC(=O)CCN2CCCCC2c2cccnc2)cc1Cn1cc([N+](=O)[O-])cn1 (stereo unspecified) as the molecule, how does the Potency read?
A: inconclusive: 6.31 µM [inhibitor, partial curve, poor fit]

Q: Which Potency does the source give for Cc1nc2ncnn2c(N2CCN(C(=O)c3cccc(F)c3)CC2)c1Cc1ccccc1 here?
A: inconclusive: 3.98 µM [inhibitor, single point]

Q: With CCc1cccc(NC(=O)CCc2nc3cccnc3n2Cc2ccc(OC)cc2)c1 as the molecule, how does the Potency read?
A: inconclusive: 35.5 µM [inhibitor, single point]

Q: For c1ccc2c(c1)oc1c(Nc3ccc(CN4CCOCC4)cc3)ncnc12, which Potency is on record?
A: inconclusive: 35.5 µM [inhibitor, single point]

Q: For Cc1ccc2nc(N(CCCN(C)C)C(=O)c3ccc(S(=O)(=O)N4CCCCCC4)cc3)sc2c1, which Potency is on record?
A: inconclusive: 22.4 µM [inhibitor, single point]

Q: With CC(=O)Oc1ccc(N2C(=O)C3C(C2=O)C(C(=O)c2ccc(Cl)cc2)N2CCCC32)cc1 (stereo unspecified) as the molecule, how does the Potency read?
A: inconclusive: 22.4 µM [inhibitor, single point]

Q: With O=S(=O)([N-]c1nc2ccccc2nc1-[n+]1ccc(Cc2ccccc2)cc1)c1ccc(Br)s1 as the molecule, how does the Potency read?
A: active: 2.82 µM

Q: With Cn1c(=O)[nH]c(=O)c2c1nc(N1CCOCC1)n2Cc1ccccc1 as the molecule, how does the Potency read?
A: inconclusive: 7.08 µM [inhibitor, full curve]

Q: With CCC(=O)N1CCCc2cc(S(=O)(=O)N3CCN(c4ncccn4)CC3)ccc21 as the molecule, how does the Potency read?
A: inactive

Q: With COc1ccc2nc(SC(C)C(=O)NC3CCCC3)[nH]c2c1 (stereo unspecified) as the molecule, how does the Potency read?
A: inactive

Q: For COC(=O)C1=C(N)c2ccccc2C1(C#N)c1ccccc1 (stereo unspecified), which Potency is on record?
A: inconclusive: 11.2 µM [inhibitor, single point]

Q: With COc1cccc(C(=O)Nc2ccccc2C(=O)NC2CC2)c1 as the molecule, how does the Potency read?
A: inactive

Q: Which Potency does the source give for Cc1c(C(=O)NCc2ccc(F)cc2)oc2ccc(S(=O)(=O)N3CCCCC3)cc12 here?
A: inconclusive: 11.2 µM [inhibitor, single point]

Q: For CC(C(=O)N1CCc2ccccc21)N1CCN(S(=O)(=O)c2cccs2)CC1 (stereo unspecified), which Potency is on record?
A: inconclusive: 3.16 µM [inhibitor, full curve, poor fit]

Q: Which Potency does the source give for CCOC(=O)C1CCCN(c2nc3c(S(=O)(=O)c4ccc(CC)cc4)nnn3c3ccsc23)C1 (stereo unspecified) here?
A: inactive

Q: For Cc1noc(C)c1NC(=O)N(C)C[C@H]1Oc2ccc(NC(=O)CCN3CCOCC3)cc2C(=O)N([C@H](C)CO)C[C@@H]1C, which Potency is on record?
A: inconclusive: 5.62 µM [inhibitor, single point]

Q: For COc1ccc(CCNc2oc(Cc3ccccc3)nc2C#N)cc1OC, which Potency is on record?
A: inconclusive: 5.62 µM [inhibitor, single point]

Q: For COc1ccc(C)cc1NC(=O)C(Sc1nnc(-c2ccncc2)n1-c1ccc(Cl)cc1)c1ccccc1 (stereo unspecified), which Potency is on record?
A: inconclusive: 35.5 µM [inhibitor, single point]

Q: With O=C(Cn1nnc(-c2ccccc2)n1)Nc1ccccc1N1CCOCC1 as the molecule, how does the Potency read?
A: inactive

Q: For O=C1Nc2ccccc2N=C(c2ccc3c(c2)OCO3)C1N(C(=O)c1ccc2ccccc2c1)C1CC1 (stereo unspecified), which Potency is on record?
A: active: 12.6 µM

Q: Which Potency does the source give for Cc1ccc2nc(-c3cccs3)c(Nc3c(C)cccc3C)n2c1 here?
A: inconclusive: 22.4 µM [inhibitor, single point]

Q: With Fc1cccc2sc(Nc3nc4c(F)cccc4s3)nc12 as the molecule, how does the Potency read?
A: inactive

Q: For COc1c(Cl)cc(Cl)cc1C(=O)Nc1ccc(C(=O)O)cc1, which Potency is on record?
A: inconclusive: 25.1 µM [inhibitor, single point]

Q: Which Potency does the source give for O=C(CSc1nc2cc(C(F)(F)F)ccc2n1Cc1ccccc1)NC1CCS(=O)(=O)C1 (stereo unspecified) here?
A: inconclusive: 35.5 µM [inhibitor, single point]

Q: Which Potency does the source give for O=C(Nc1ccc(-c2csnn2)cc1)C1CC1 here?
A: inactive

Q: With CCN(/C=N/c1sc2c(c1C#N)CC(C)(C)NC2(C)C)CC as the molecule, how does the Potency read?
A: inconclusive: 0.794 µM [inhibitor, partial curve, poor fit]

Q: For COc1ccc(NC(=O)CN2C(=O)CC(c3ccc(C)c(C)c3)=Nc3ccccc32)cc1OC, which Potency is on record?
A: inconclusive: 1 µM [inhibitor, full curve, poor fit]

Q: With COc1cccc(OCc2cc(C(=O)NCc3cnc4ccccn34)no2)c1 as the molecule, how does the Potency read?
A: inconclusive: 7.08 µM [inhibitor, partial curve]

Q: With CC1=CC(C)C(=O)N(C)C(C)=C1 (stereo unspecified) as the molecule, how does the Potency read?
A: inactive

Q: With Nc1c(S(=O)(=O)O)cc(NC(=O)c2ccccc2)c2c1C(=O)c1ccccc1C2=O as the molecule, how does the Potency read?
A: inactive

Q: With Cc1ccc([C@@H]2CC=C(C(=O)O)[C@H](c3ccccc3)N2S(=O)(=O)c2ccccc2C)cc1 as the molecule, how does the Potency read?
A: inconclusive: 1 µM [inhibitor, full curve, poor fit]

Q: With O=C(CCCc1nc(-c2ccccc2)no1)Nc1cccnc1 as the molecule, how does the Potency read?
A: inactive

Q: With O=c1c(/C=C(\O)c2ccc(F)cc2)nc2ccccc2n1-c1ccccc1 as the molecule, how does the Potency read?
A: inconclusive: 3.98 µM [inhibitor, single point]

Q: Which Potency does the source give for COc1ccc(NC(=O)Cn2nnc(C(=O)NCc3cccs3)c2N)cc1 here?
A: inconclusive: 12.6 µM [inhibitor, single point]

Q: With O=C(COC(=O)c1cc(=O)[nH]c(=O)[nH]1)Nc1cccc(S(=O)(=O)N2CCCCC2)c1 as the molecule, how does the Potency read?
A: inconclusive: 35.5 µM [inhibitor, single point]

Q: For CC(=O)C(N=Nc1ccccc1)(Sc1nnc(-c2ccccc2)n1-c1ccccc1)C(C)=O, which Potency is on record?
A: inactive

Q: For COc1ccc(Cc2nnc(Cl)c3ccccc23)cc1OC, which Potency is on record?
A: inactive

Q: With N=c1n(CCO)c2ccccc2n1Cc1ccc(Cl)cc1 as the molecule, how does the Potency read?
A: inconclusive: 35.5 µM [inhibitor, partial curve, poor fit]

Q: For COc1ccc(N2CCN(C(=O)CS(=O)Cc3nc(-c4ccc(OC)c(OC)c4)oc3C)CC2)cc1 (stereo unspecified), which Potency is on record?
A: inactive

Q: Which Potency does the source give for CCc1ccc(CN2CCC(CO)(CC3CCCCO3)CC2)o1 (stereo unspecified) here?
A: inactive

Q: Which Potency does the source give for Clc1c(OCCCn2ccnc2)ccc2ccccc12 here?
A: inconclusive: 35.5 µM [inhibitor, single point]

Q: With Cc1ccc(-c2nnn(CC(=O)NC(=O)NC3CCCCC3)n2)cc1 as the molecule, how does the Potency read?
A: inconclusive: 25.1 µM [inhibitor, single point]

Q: Which Potency does the source give for CCn1c(C)nnc1SCC(=O)Nc1ccc(N2CCOCC2)cc1 here?
A: inconclusive: 0.794 µM [inhibitor, full curve, poor fit]

Q: With Fc1ccc(CNc2ncnc3cc(Cl)ccc23)cc1 as the molecule, how does the Potency read?
A: inconclusive: 22.4 µM [inhibitor, single point]

Q: Which Potency does the source give for CC(C)(C)Cc1nnc(NC(=O)CSc2ccccc2)s1 here?
A: inactive

Q: Which Potency does the source give for Cc1cccn2c(=O)c3cc(C(=O)NCC4CCCO4)c(=N)n(CCN4CCOCC4)c3nc12 (stereo unspecified) here?
A: inconclusive: 6.31 µM [inhibitor, single point]

Q: For CCCCN1CC(c2nc3ccccc3n2CCCCOc2cc(C)ccc2C)CC1=O (stereo unspecified), which Potency is on record?
A: inconclusive: 22.4 µM [inhibitor, single point]

Q: Which Potency does the source give for CN(C)c1ccc(N/C=C/C(=O)C(F)(F)F)cc1 here?
A: inconclusive: 15.8 µM [inhibitor, partial curve, poor fit]

Q: For C=CCn1c(SCC(=O)Nc2ccc(F)cc2F)nnc1-c1cnccn1, which Potency is on record?
A: inactive

Q: Which Potency does the source give for Oc1ccc(Oc2ccc(Oc3ccc(O)cc3)cc2)cc1 here?
A: inconclusive: 22.4 µM [inhibitor, single point]

Q: With Clc1ccc(C2=NN(c3ccccc3)C(c3ccco3)C2)cc1 (stereo unspecified) as the molecule, how does the Potency read?
A: inactive

Q: Which Potency does the source give for COc1ccc(NC(=O)COC(=O)Cc2ccccc2[N+](=O)[O-])cc1OC here?
A: inactive

Q: With COc1ccc(CCNC(=O)C2CCN(S(=O)(=O)c3cccc4nonc34)CC2)cc1OC as the molecule, how does the Potency read?
A: inconclusive: 5.62 µM [inhibitor, single point]

Q: With CCc1nc2ccc(C(=O)NCCc3ccccc3OC)cc2nc1CC as the molecule, how does the Potency read?
A: inconclusive: 35.5 µM [inhibitor, single point]

Q: For O=C(CCc1nc(-c2cccs2)no1)Nc1cnc2ccccc2c1, which Potency is on record?
A: inconclusive: 5.62 µM [inhibitor, single point]

Q: Which Potency does the source give for CN(c1ccc(-c2csc(NC(=O)C3CC(=O)N(Cc4ccco4)C3)n2)cc1)S(C)(=O)=O (stereo unspecified) here?
A: inactive

Q: With Cc1ccc(NC(=O)c2c(C)cc(C)nc2SCC(=O)Nc2ccc(Br)cc2)cc1 as the molecule, how does the Potency read?
A: inconclusive: 35.5 µM [inhibitor, single point]

Q: For CN(c1ccccc1)S(=O)(=O)c1cccc(NC(=O)CSc2nccc(=O)[nH]2)c1, which Potency is on record?
A: inconclusive: 3.55 µM [inhibitor, single point]

Q: Which Potency does the source give for CC(O)CNc1nc2sc3c(c2c(=O)n1CCc1ccccc1)CCCCC3 (stereo unspecified) here?
A: inconclusive: 35.5 µM [inhibitor, single point]

Q: Which Potency does the source give for COc1ccc(C(=O)NC(C(=O)NCc2ccccn2)C(C)C)cc1 (stereo unspecified) here?
A: inactive

Q: Which Potency does the source give for Cn1c(NN)nc2sc3c(c2c1=O)CC(C)(C)OC3 here?
A: inconclusive: 17.8 µM [inhibitor, partial curve, poor fit]

Q: With COc1ccc(N(Cc2cc3ccccc3[nH]c2=O)C(=O)c2cccc(Cl)c2)cc1 as the molecule, how does the Potency read?
A: inactive

Q: For COc1ccccc1NC(=O)Oc1cccc(OC(=O)c2ccccc2)c1, which Potency is on record?
A: inactive

Q: With CC(C)(C)C(=O)NC(=S)Nc1ccc(F)cc1 as the molecule, how does the Potency read?
A: inactive

Q: With CCc1nn(C)c(N)c1C as the molecule, how does the Potency read?
A: inactive

Q: Which Potency does the source give for COc1ccc(Cn2c(-c3ccco3)nc3oc4ccccc4c(=O)c3c2=O)cc1 here?
A: inactive
